# Data from PubChem BioAssay AID463173 (ICCB-Longwood Screening Facility, Harvard Medical School, 2010).
# In all, about 52,000 compounds went through this assay and about 1,700 (3.3%) were called active. Cut-off read from the data, not from the text of the source: active = survival mostly below about 52% (no sharp cut-off); inactive = mostly above about 56%. The list shows a part of the results.
# Tested on: Wild type
# Assay: S. aureus survival, RN4220 and DeltatarO strains – OD600, teichoic acid synthesis inhibitors, primary screen (AID 463173)
# Conditions: S. aureus RN4220 wild type/DeltatarO growth, OD600, 18 h, active compounds read low, screened at 18.75 µg/mL (by protocol)
row,SMILES,survival
1,Clc1cccc(-n2ncc3c(NCCC4=CCCCC4)ncnc32)c1,inactive: 32%
2,COc1ccc(OC)c(C(=O)CN2C(=O)N(c3cc(C)cc(C)c3)S(=O)(=O)c3ccccc32)c1,inactive: 81%
3,Cc1cc(O)c(C(c2ccc(F)cc2)N2CCN(c3ccccc3)CC2)c(=O)n1Cc1ccco1 (configuration not stated),inactive: 68%
4,Cc1ccc(NC(=O)CSc2nnc(C)s2)c(C)c1,inactive: 79%
5,COc1ccc(NC(=O)C2CCN(c3nc4ccccc4[nH]3)CC2)cc1OC,inactive: 53%
6,COc1ccc(-c2nc(SCC(=O)NCc3nc4ccccc4n3C)n3[nH]c(=O)cc3n2)cc1,inactive: 81%
7,CCCCN1C(=O)C(NC(=O)c2ccc(C(C)(C)C)cc2)(C(F)(F)F)C(C(=O)OC)=C1C (configuration not stated),inactive: 61%
8,COc1ccc(OC)c(NC(=O)Nc2cccc(OCc3cc(=O)n4cc(C)ccc4n3)c2)c1,inactive: 78%
9,CC(NC(=O)c1cccc(Nc2nc3ccccc3n3nnnc23)c1)c1ccccc1 (configuration not stated),inactive: 127%
10,O=C(CSc1nc2c(c(=O)[nH]1)CCC2)Nc1cccc(O)c1,inactive: 81%
11,Cc1ccc(N2CCN(c3ncnc4onc(-c5ccc(F)cc5)c34)CC2)c(C)c1,inactive: 69%
12,COc1cc(NC(=O)c2c(C)nn(-c3ccc(F)cc3)c2-n2cccc2)cc(OC)c1,inactive: 70%
13,COc1ccc(-n2nnnc2C2CCN(S(=O)(=O)c3cc(Cl)ccc3OC)CC2)cc1,inactive: 81%
14,CCn1c(=O)c2sccc2n2c(CCCC(=O)Nc3ccc(C)cc3)nnc12,inactive: 85%
15,CCC(C)(C)NC(=O)Cn1nnc(-c2ccc(OC)cc2)n1,inactive: 108%
16,COc1ccccc1NC(=O)C(C#N)Cc1cc2cc(C)cc(C)c2[nH]c1=O (configuration not stated),inactive: 99%
17,Cc1ccc(S(=O)(=O)NCCc2nnc3ccc(SCc4cccc(F)c4)nn23)cc1,inactive: 95%
18,N#CC(C#N)C(CC(=O)c1ccccc1)c1ccc2c(c1)OCO2 (configuration not stated),inactive: 111%
19,N=c1n(CC(N)=O)c2ccccc2n1Cc1ccccc1Cl,inactive: 109%
20,CC(C)CC(=O)Nc1nc2ccc(S(C)(=O)=O)cc2s1,inactive: 102%
21,COc1ccc(CC(=O)Nc2c(C(=O)N3CCN(c4ccccc4F)CC3)oc3ccccc23)cc1OC,inactive: 79%
22,COc1ccc(-c2nc3ccccc3o2)cc1NC(=O)c1ccc(-c2ccc(C)c(Cl)c2)o1,inactive: 73%
23,CCCN1C2CCCC1CC(NC(=O)c1ccccc1C)C2 (configuration not stated),inactive: 108%

row,SMILES,survival
1,CCOc1ccc(OCC)c(Nc2nc3ccccc3n3nnnc23)c1,inactive: 89%
2,Cc1ccc(Nc2c(-c3ccco3)nc3ccc(C)cn23)cc1,inactive: 110%
3,CCN(C(=O)c1cc2c(=O)oc3ccccc3c2s1)c1cccc(C(F)(F)F)c1,inactive: 131%
4,COc1ccc(NC(=O)CSC2=Nc3ccccc3C3=NC(Cc4ccccc4)C(=O)N23)cc1 (configuration not stated),inactive: 85%
5,Cc1ccc(CC23CN4CC(CN(C4)C2)C3=O)c(C)c1,inactive: 102%
6,O=C(CN1C=NS(=O)(=O)c2ccccc21)Nc1ccc(Br)cc1,inactive: 73%
7,Cc1ccccc1CNC(=O)CCCn1ncn2c(cc3occc32)c1=O,inactive: 84%
8,Cc1cccc(-n2nnc(-c3nc(-c4cccs4)no3)c2N)c1C,inactive: 91%
9,O=C1C2=C(Nc3ccccc3SC2c2ccc(C(F)(F)F)cc2)c2ccccc21 (configuration not stated),inactive: 36%
10,COCCNC(=O)c1ccc2c(c1)NC(=O)C(CS(=O)(=O)Cc1ccc(F)cc1Cl)N2 (configuration not stated),inactive: 134%
11,COc1ccc(NC(=O)c2c(NC(=O)c3cccc(C)c3)sc3c2CCC3)cc1,inactive: 74%
12,COc1cccc(CNC(=O)c2ccc3oc(=O)n(Cc4ccccc4)c3c2)c1,active: -3%
13,Cc1nn(-c2cc(N3CCOCC3)ccc2N)c(=O)c2ccccc12,inactive: 100%
14,COc1ccccc1Nc1ncc2c(n1)CCN(CC(C)C)C2,inactive: 71%
15,CCN1C(=O)c2ccccc2S(=O)c2ccc(C(=O)N3CCN(c4ccc(F)cc4)CC3)cc21 (configuration not stated),inactive: 86%
16,Cc1cccc(-c2nc(-c3ccc4c(c3)[nH]c(=O)n4C)no2)c1,inactive: 72%
17,O=C(Nc1ccc2oc(-c3cccc4c(Br)cccc34)nc2c1)c1ccc(Br)cc1,inactive: 91%
18,CC(=O)c1[nH]c(C)c(C(=O)NCc2ccc(Cl)cc2)c1C,inactive: 105%
19,COc1cc(C)c(S(=O)(=O)Nc2cccc(-c3ccc(N4CCCC4)nn3)c2)cc1C,inactive: 70%
20,Cc1cc(F)ccc1NC(=O)CCS(=O)(=O)c1cccc2nsnc12,inactive: 61%
21,Cc1ccccc1CN1C(=O)c2ccccc2Sc2ccc(C(=O)N3CCOCC3)cc21,inactive: 88%
22,COc1ccccc1-c1c(C(F)(F)F)oc2c(CN3CCCCC3C)c(O)ccc2c1=O (configuration not stated),inactive: 71%
23,Cc1cccc2cc(C(c3nnnn3CCc3ccccc3)N3CCN(c4nc5ccccc5s4)CC3)c(=O)[nH]c12 (configuration not stated),inactive: 108%

row,SMILES,survival
1,O=C(NC1CCCC1)c1ccc2c(c1)OCO2,inactive: 107%
2,Cc1cccc(NC(=O)CSc2nc3c(oc4ccccc43)c(=O)n2-c2ccccc2)c1C,inactive: 86%
3,CCCN(CCC)CCCNC(=O)c1cc2c(-c3ccc(Cl)cc3)nn(C)c2s1,inactive: 95%
4,CCc1cc(=O)oc2cc(C)c3c(-c4ccc(F)cc4)coc3c12,inactive: 59%
5,Cc1ccc(S(=O)(=O)N2CCC(C(=O)Nc3cc(C)ccc3C)CC2)cc1,inactive: 95%
6,COc1ccc(Cn2c(=O)c3oc4ccccc4c3n(Cc3ccccc3)c2=O)cc1,inactive: 85%
7,O=S(=O)(NCc1ccco1)c1ccc(-c2ccc(S(=O)(=O)NCc3ccco3)cc2)cc1,inactive: 95%
8,COc1cc(-c2cc3n(C)c(C)c(CCC(=O)Nc4ccc(F)cc4)c(=O)n3n2)cc(OC)c1OC,inactive: 79%
9,O=C(CSc1c2c(nc3ccccc13)CCC2)Nc1ccc(F)cc1F,inactive: 62%
10,Cc1ccc(OCCSc2nc(-c3cccs3)nc3cc(=O)[nH]n23)cc1Cl,inactive: 121%
11,CCOC(=O)c1[nH]c(C)c(CCC(=O)NCc2cccc(Cl)c2)c1C,inactive: 71%
12,COC(=O)c1ccc([C@@H]2Nc3c(cccc3C(F)(F)F)[C@@H]3C=CC[C@@H]32)cc1,active: 3%
13,COc1ccccc1CCNC(=O)Cc1c(C)c2c(O)cc(C)cc2oc1=O,inactive: 69%
14,COc1ccc(NC(=O)CCN2CCOCC2)cc1,inactive: 111%
15,O=C1OC(Nc2ccccn2)c2ccccc21 (configuration not stated),inactive: 103%
16,COC(=O)c1c(NC(=O)C2c3ccccc3Oc3ccccc32)sc2c1CCC(C)C2 (configuration not stated),inactive: 70%
17,Nc1nonc1-c1nc2ccccc2n1Cc1ccc(Br)cc1,inactive: 93%
18,Nc1nc2nc(-c3ccc(Cl)cc3)cc(C(F)(F)F)n2n1,inactive: 144%
19,CC(=O)N1c2ccccc2C(=O)C1N1CCN(c2cccc(C)c2C)CC1 (configuration not stated),inactive: 99%
20,Cc1ccc(NC(=O)CSc2nc3c(c(=O)[nH]2)CN(Cc2ccccc2)CC3)cc1Cl,inactive: 72%
21,CC(C)(Oc1ccc(Cl)cc1)C(=O)Nc1cccc(-c2cn3cccnc3n2)c1,inactive: 82%
22,CC(CNC(=O)c1sc2ncccc2c1-n1cccc1)c1ccccc1 (configuration not stated),inactive: 81%
23,Cc1ccc(NC(=O)C2=CC(c3cccs3)=NS(=O)(=O)N2C)cc1,inactive: 91%

row,SMILES,survival
1,CC1(C)CC(=O)c2cc(C(=O)Nc3ccc(Cl)cc3)c(=O)[nH]c2C1,inactive: 71%
2,Cn1c(=O)c2c(ncn2C/C=C/c2ccccc2)n(C)c1=O,inactive: 103%
3,Cc1nc2scc(C)n2c(=O)c1S(=O)(=O)Nc1ccc(N2CCN(C(=O)C(C)C)CC2)cc1,inactive: 133%
4,O=C(CC(c1cccs1)N1Cc2ccccc2C1=O)Nc1ccccc1F (configuration not stated),inactive: 73%
5,CCOC(=O)C1CCN(C(=O)c2ccc(C)cc2)CC1,inactive: 93%
6,COC(=O)c1cc2occc2n1Cc1ccc(F)cc1Cl,inactive: 19%
7,COc1ccc(-c2nnc(SCC#N)o2)cc1,inactive: 106%
8,Cc1ccc(NC(=O)CN2C(=O)CSc3ccc(S(=O)(=O)N(C)C)cc32)cc1C,inactive: 66%
9,Cc1ccc(CSC2=Nc3ccccc3C3=NC(CCC(=O)NCCc4ccccc4)C(=O)N23)cc1 (configuration not stated),inactive: 66%
10,CN(C)CCNc1ccc(Cl)nn1,inactive: 86%
11,COc1ccc(-c2nc(S(=O)(=O)c3ccc(Cl)cc3)c(N3CCCCCC3)o2)cc1,inactive: 64%
12,Cc1ccc(C(=O)NCCSc2c(C)[nH]c3ccccc23)cc1C,active: 19%
13,CCOc1cc(C2C(C(N)=O)=C(C)Nc3ncnn32)cc(Br)c1O (configuration not stated),inactive: 71%
14,Cc1ccc(-c2nn(CCC(=O)Nc3ccc(Cl)c(Cl)c3)c(=O)c3ccccc23)cc1,inactive: 78%
15,O=c1[nH]c2cc3c(cc2cc1CN(Cc1nnnn1CCc1ccccc1)C1CCCC1)OCCO3,inactive: 102%
16,COc1nc(NC23CC4CC(CC(C4)C2)C3)nc(OC)n1,inactive: 126%
17,Cc1ccc(CCNC(=O)c2cc3c(s2)-c2ccccc2OC3)cc1,inactive: 95%
18,O=C(NCC1CCCO1)NC12CC3CC(CC(C3)C1)C2 (configuration not stated),inactive: 107%
19,CC1CCCC(C)N1C(=O)CSc1nnc(-c2ccccc2)o1 (configuration not stated),inactive: 98%
20,CCCn1c(=N)c(C(=O)NC2CCCC2)cc2c(=O)n3cc(C)ccc3nc21,inactive: 68%
21,CC1CCC(NC(=O)c2ccc3c(c2)N(Cc2ccccc2F)C(=O)c2ccccc2S3)CC1 (configuration not stated),inactive: 84%
22,NC(=O)CSc1nc2ccc(NC(=O)COc3ccccc3)cc2s1,inactive: 86%
23,Cc1nc2ccc(S(=O)(=O)NC(C(=O)NCc3ccccc3Cl)C(C)C)cc2s1 (configuration not stated),inactive: 85%
